# Publication PMC6919601, “Identification of Plasmodium dipeptidyl aminopeptidase allosteric inhibitors by high throughput screening” (PLoS ONE, 2019)
# Screen size: about 110,000 compounds; about 230 (0.21%) showed an effect of 50% or more. Some of the results follow.
# Biological target: DPAP1 (Plasmodium falciparum, UniProt Q8IIJ9)
# Experiment: primary screen, percent inhibition; read by cleavage of a fluorogenic dipeptide substrate; higher = more effect of the substance
# Set-up: species or system P. falciparum D10 trophozoite lysates; single well
# 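Further: 30 min substrate incubation versus DMSO and 10 µM JCP410 controls.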
# DPAP1, sequence (Q8IIJ9 whole entry, looked up): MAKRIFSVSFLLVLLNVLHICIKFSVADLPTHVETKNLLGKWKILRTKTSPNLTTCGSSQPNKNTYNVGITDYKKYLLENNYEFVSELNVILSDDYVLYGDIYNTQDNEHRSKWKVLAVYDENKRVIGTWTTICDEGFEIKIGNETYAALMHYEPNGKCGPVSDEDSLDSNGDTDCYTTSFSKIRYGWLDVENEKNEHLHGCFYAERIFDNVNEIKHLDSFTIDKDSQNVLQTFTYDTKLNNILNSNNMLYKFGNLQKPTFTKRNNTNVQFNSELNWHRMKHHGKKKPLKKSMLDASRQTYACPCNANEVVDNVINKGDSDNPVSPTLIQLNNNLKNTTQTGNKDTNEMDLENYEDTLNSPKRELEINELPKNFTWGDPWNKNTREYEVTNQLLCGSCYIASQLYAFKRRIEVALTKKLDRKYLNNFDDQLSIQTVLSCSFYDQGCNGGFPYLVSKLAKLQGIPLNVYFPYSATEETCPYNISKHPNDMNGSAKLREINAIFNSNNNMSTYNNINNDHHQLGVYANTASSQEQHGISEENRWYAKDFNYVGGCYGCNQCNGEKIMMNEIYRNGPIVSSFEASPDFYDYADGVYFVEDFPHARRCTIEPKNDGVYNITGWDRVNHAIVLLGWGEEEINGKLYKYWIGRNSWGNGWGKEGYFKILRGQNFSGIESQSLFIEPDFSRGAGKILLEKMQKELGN
row,Structure (SMILES),% Inhibition @ 10 uM
1,C=Cc1ccc(Cn2c(C(=O)O)c(CNCc3ccc(OC(C)C)cc3)c3ccccc32)cc1,2.27%
2,N#Cc1ccc(CSc2nnc(CN3CCOCC3)n2-c2ccccc2)cc1,2.72%
3,O=[N+]([O-])c1ccc(CN2CCN(c3cccc(C(F)(F)F)c3)CC2)s1,-0.127%
4,CCN(CCC(C)c1ccccc1)CCN(C)C (stereo not shown),-4.75%
5,CC1(C)CC(=O)C2=C(C1)N(c1nc[nH]n1)C(N)=C(C#N)C2c1ccc(F)cc1 (stereo not shown),-4.6%
6,Cc1ccc(NC(=O)c2c(Cl)c(C)nn2C)cc1C,-1.44%
7,Cc1ncsc1CCSc1nc2ccccc2c(=O)n1C,-1.98%
8,COc1ccc(OCC(O)CN2CCN(c3ccccc3F)CC2)cc1 (stereo not shown),3.43%
9,O=C(NC1C2CC3CC1CC(O)(C3)C2)c1ccc(Cl)cc1 (stereo not shown),-4.75%
10,O=C(NCCCc1ccccc1)C1CCC(CNS(=O)(=O)c2cccc3nsnc23)CC1 (stereo not shown),-2.25%
11,COc1cccc(/C=C2\N=C(C3CCCCC3)OC2=O)c1OC,-0.597%
12,CCCN1CCC(N(C)CCN(CC)CC)CC1,-1.56%
13,Cn1c2ccccc2c2cnn(CC(=O)NCc3cccnc3)c(=O)c21,-3.67%
14,Cc1cccc(OCc2nc(-c3cc(C)nc4ccccc34)no2)c1,1.32%
15,CCOc1ccc(C(=O)Nc2cccc(C(=O)O)c2C)cc1Cl,-0.123%
16,CCN1C2=C(C(=O)CCC2)C(c2cccc(OC)c2)C2=C1CCCC2=O,-1.6%
17,Nc1nc2c3cc4c(nc3sc2c2ccccc12)CCC4,-0.171%
18,C#CCOC(=O)CCCC(=O)Nc1cccc2ccccc12,-1.77%
19,Cc1ccc(C)c(Cn2c(CN3CCN(C(=O)c4ccco4)CC3)nc3c2c(=O)n(C)c(=O)n3C)c1,4.51%
20,O=C(CSc1nc[nH]n1)Nc1nnc(-c2ccccc2)s1,-3.41%
21,COc1ccc(-c2cc(O)c(C(=O)c3ccc(C)cc3)nn2)cc1,-0.403%
22,CCOc1cc(C(Nc2cc(C)ccn2)c2ccc3cccnc3c2O)ccc1O (stereo not shown),-4.51%
23,FC(F)(F)c1cccc(N2CCN(Cc3cccs3)CC2)c1,-2.08%
24,Cc1cc(C2C(=O)c3ccccc3C2=O)nc2ccccc12,0.627%
25,O=C(CCC1CCCC1)NC1CCC(NC(=O)CCC2CCCC2)CC1 (stereo not shown),2.22%

row,Structure (SMILES),% Inhibition @ 10 uM
1,COc1ccc2nc3sc(C(=O)NCCCN4CCCC4=O)cc3cc2c1,84.6%
2,CCCC(NCC(C)C)C(=O)Nc1c(C)cc(C)cc1C (stereo not shown),-0.999%
3,COc1ccc(C2(C)CC(=O)N(C)C2=O)cc1 (stereo not shown),4.08%
4,CCOC(=O)C1=C(N)OC2=C(C(=O)CC(C)(C)C2)C1c1ccc(Cl)c(Cl)c1 (stereo not shown),13%
5,COc1cc(CNCCSc2nnnn2C)cc(Br)c1OCc1ccccc1F,0.00706%
6,COC(=O)CC[S+](O)CCC(=O)OC,-0.0372%
7,O=C(O)c1cccnc1SCc1ccccc1,-0.519%
8,O=C(NC1(C(F)(F)F)C(=O)Nc2c1c(=O)[nH]c(=O)n2-c1ccccc1)c1ccncc1 (stereo not shown),1.93%
9,Cc1nc2cc(NC(=O)CNS(=O)(=O)c3ccc(C(C)(C)C)cc3)ccc2s1,-3.43%
10,CC(C)(C)N1C(=O)N=C(c2ccccc2)c2ccccc2S1=O (stereo not shown),-3.45%
11,O=C(CCc1nnc2ccc(N3CCCC3)nn12)N1CC=C(c2ccccc2)CC1,-0.544%
12,CC(C)C1C(C#N)=C(N)Oc2[nH]nc(-c3ccc4ccccc4c3)c21 (stereo not shown),11.1%
13,O=C(Cc1ccccc1)Nc1c(-c2ccc(F)cc2)nc2ccccn12,-2.83%
14,Cc1ccsc1CCNC(=O)c1cc(-c2ccccc2)c(N2CCOCC2)s1,0.708%
15,COC(=O)c1ccc(CSc2nc3cccnc3n2Cc2ccccc2)cc1,-3.34%
16,NC(=O)COc1ccc(/C=C2/SC(=O)N(CC(=O)N3CCN(c4ccccc4)CC3)C2=O)cc1,0.161%
17,Cc1ccc(Sc2ccc(/C=C3/C(=N)N4C(=NC3=O)SN=C4S(C)(=O)=O)o2)cc1,1.85%
18,COc1ccc(C2=NOC(C(=O)N(C)Cc3ccccc3)C2)cc1 (stereo not shown),1.62%
19,CCOC(=O)N1CCN(c2nc(-c3ccc(C)cc3)cc(C(F)F)n2)CC1,2.64%
20,N#CCNC(=O)C(Cc1c(F)cccc1F)NC(=O)c1ccc(Oc2ccccc2)cc1 (stereo not shown),1.61%
21,CCOc1ccccc1C1C(C#N)=C(N)Oc2c1c(C)nn2-c1ccccc1 (stereo not shown),-4.4%
22,Cc1ccc(-c2nc(CSCC(=O)NC(C)CCc3ccccc3)c(C)o2)cc1 (stereo not shown),2.37%
23,O=C(O)CNC(=O)c1ccc(C23CC4CC(CC(C4)C2)C3)cc1,-3.62%
24,CC(C)C[C@H](NC(=O)c1ccc(-c2ccc(O)cc2)cc1)C(=O)NCC#N,15.9%
